In all, about 410,000 compounds went through this assay and about 5,000 (1.2%) were called active. Inconclusive means that the source gave no clear call. Such entries were picked first, then a sample of the others. Calls come from the whole dose curve; as a rule, active = well fitted inhibition curve with a large enough effect; inconclusive = small, poorly fitted or top-dose-only effect; inactive = no such curve, though single readings can be large or run the other way. Potencies beside an inconclusive call are fits to weak or partial responses and may not hold up.
test: qHTS for Inhibitors of TGF-b; details: HepG2 CAGA-GFP TGF-b/SMAD3 reporter, GFP fluorescence, 18 h, TGF-beta stimulated, 500 pg/mL final; series mostly up to 46.1 µM; note: nearly all actives have a fitted effect of over 65% in size
Summary of the method: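 GFP signal (ex488/em500-530) from TGF-beta-stimulated HEPG2 CAGA-GFP cells, 500 pg/mL final, 18 h at 37 degrees C in DMEM plus 1% FBS, normalized to unstimulated and DMSO-stimulated controls.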
Potency is the fitted concentration of half-maximal effect; tags give direction and shape of the fitted curve.

Compound	Potency
Cc1ccc(S(=O)(=O)Nc2ccc3ccccc3c2[N+](=O)[O-])cc1	inconclusive: 35.5 µM [inhibitor, single point]
Cc1cccc(C(=O)NNC(=O)c2c(O)c3ccccc3n(C)c2=O)c1	inconclusive: 22.4 µM [inhibitor, single point]
CCc1ccc2oc(-c3ccc(C)c(NC(=O)COc4ccc(Cl)cc4)c3)nc2c1	inactive
CCOC(=O)c1c(C)n(-c2ccccc2)c2ccc(O)c(CN(C)C)c12	inconclusive: 35.5 µM [inhibitor, single point]
Cc1nn(-c2ccccc2)c(C)c1/C=C/C(=O)OC(C)C(=O)Nc1ncc(Cl)cc1Cl (centres undefined)	inconclusive: 35.5 µM [inhibitor, single point]
CCOc1ccccc1CNC(=O)C1CCN(C(=O)N2CC(CC)Oc3ccc(C)cc32)CC1 (centres undefined)	active: 10 µM
Cc1ccc(NC(=O)c2ccccc2Cl)cc1-n1cnnn1	inconclusive: 10 µM [inhibitor, partial curve]
CN(C)S(=O)(=O)c1ccc(C(=O)Nc2nnc(-c3cccs3)o2)cc1	inactive
COc1ccccc1/C=N/NC(=O)CNC(=O)c1ccc(S(=O)(=O)N2CCCC2)cc1	inactive
Cc1cccc(C(=O)OCC(=O)N(C)C(c2ccccc2)c2ccccc2)c1[N+](=O)[O-]	inactive
COc1cccc(/C=C/C(=O)OCC(=O)N(C)CC(=O)Nc2ccccc2Cl)c1OC	inactive
O=c1[nH]c(C2CCN(S(=O)(=O)c3ccc4c(c3)OCCO4)CC2)nc2c1nnn2Cc1c(F)cccc1Cl	inconclusive: 15.8 µM [inhibitor, single point]
O=C(NC12CC3CC(CC(C3)C1)C2)c1ccc(N2CCNCC2)c([N+](=O)[O-])c1	inactive
CN(C)C(CNC(=O)c1cc(S(=O)(=O)N(C)Cc2ccccc2)ccc1Cl)c1ccco1 (centres undefined)	inactive
O=C(O)COCC(=O)N1CCCN(c2nccc(C(F)(F)F)n2)CC1	inactive
CCN(CC)c1nc(-c2cccc(OC)c2O)nc2ccccc12	inconclusive: 35.5 µM [inhibitor, single point]
Cc1nc(N2CCCCC2C)c2c(C)c(C(=O)Nc3cccc(C(F)(F)F)c3)sc2n1 (centres undefined)	inconclusive: 25.1 µM [inhibitor, single point]
Cc1nc2nc(CSc3ccc(Cl)cc3)cc(=O)n2[nH]1	inconclusive: 1.41 µM [inhibitor, partial curve, poor fit]
CC(C)[C@H](NC(=O)c1ccco1)C(=O)OCC(=O)c1ccc(Br)s1	inconclusive: 0.316 µM [inhibitor, full curve, poor fit]
COc1cccc(NC(=O)CSc2nnc3scc(-c4ccc(Cl)cc4)n23)c1	inactive
Cc1ccc(NC(=O)N2CCCC(c3ccccc3)C2)cc1 (centres undefined)	inactive
CCOC(=O)c1cnc2c(OC)cccc2c1Oc1ccccc1	inconclusive: 35.5 µM [inhibitor, single point]

Compound	Potency
C1=C(c2ccc(-c3ccccc3)cc2)Nc2ncnn2C1c1ccco1 (centres undefined)	inactive
Nc1cc2nc3ccccc3oc-2cc1=O	inconclusive: 3.55 µM [inhibitor, partial curve, poor fit]
COc1ccc(OC)c(/C=C/c2ccnc3ccccc23)c1	inconclusive: 35.5 µM [inhibitor, single point]
Cc1ccc(NC(=O)Cn2c(O)c(N=NC(N)=S)c3ccccc32)cc1	inconclusive: 35.5 µM [inhibitor, single point]
CNC(=O)[C@]1(C(F)(F)F)C[C@H](CCC2CCCCC2)CCCO1	inconclusive: 17.8 µM [inhibitor, single point]
Cc1cc(Br)c(NC(=O)c2c(-c3c(Cl)cccc3Cl)noc2C)c(Br)c1	inactive
O/N=C/c1ccc2ccccc2c1	inconclusive: 3.55 µM [inhibitor, partial curve, poor fit]
CCc1ccc(NCc2cc3cc4c(cc3n(CC(=O)Nc3cccc(OC)c3)c2=O)OCO4)cc1	inconclusive: 15.8 µM [inhibitor, single point]
N#C/C(=C\C=C\c1ccccc1)C(=O)Nc1ccccc1	inconclusive: 14.1 µM [inhibitor, single point]
CCc1ccc2ncc3c(-c4ccccc4)nn(-c4ccccc4)c3c2c1	inconclusive: 11.2 µM [inhibitor, partial curve, poor fit]
CC(C)COc1ccc(C(=O)NCC2(N3CCN(C)CC3)CCCCC2)cc1	inconclusive: 35.5 µM [inhibitor, single point]
O=C(Cn1cc(COc2ccccc2[N+](=O)[O-])nn1)c1ccc(O)cc1	inactive
CCN(CC(=O)Nc1ccc(OC)cc1)C(=O)c1ccc2c(c1)NC(=O)C(C)S2 (centres undefined)	inconclusive: 39.8 µM [inhibitor, partial curve, poor fit]
O=C(CN1C(=O)S/C(=C\c2cccc(Cl)c2)C1=O)NC1C=CS(=O)(=O)C1 (centres undefined)	inactive
COc1ccc(/C=C/c2ccc3cccc(O)c3n2)cc1Br	inactive
CCS(=O)(=O)c1ccc2c(c1)N(S(=O)(=O)c1ccc(C)cc1)CC(C(=O)O)O2 (centres undefined)	inconclusive: 3.55 µM [inhibitor, single point]
COc1ccc(-c2coc3c(C(=O)NCc4ccc(OC)c(OC)c4)cccc23)c(C)c1	inactive
CN(CC(=O)Nc1cccc(S(=O)(=O)N2CCOCC2)c1)CC(=O)Nc1ccc(Cl)c(C(F)(F)F)c1	inconclusive: 25.1 µM [inhibitor, single point]
COC(=O)c1c(NC(NC(C)=O)C(Cl)(Cl)Cl)sc2c1CCCC2 (centres undefined)	active: 12.6 µM
COc1ccc(OC)c(C2Nc3nc4ccccc4n3C(C)=C2C(=O)Nc2ccc(C)cc2C)c1 (centres undefined)	inconclusive: 1.12 µM [inhibitor, full curve, poor fit]
O=[N+]([O-])c1ccccc1NCc1c(O)ccc2ccccc12	inconclusive: 35.5 µM [inhibitor, single point]
Cc1ccc(NC(=O)c2nc[nH]c2C(=O)N(C)Cc2ccccc2)cc1	inconclusive: 35.5 µM [inhibitor, single point]
